# The other results are listed elsewhere or left out. Shown are side measurements of this screen, not its main read-out; they come without a call.
# Legend:
# Test in all cases: Primary Screen for Target Class Profiling of Small Molecule Inhibitors of Methyltransferases
# [1] = target: Glycine N-methyltransferase (Homo sapiens) (UniProt Q14749); details: purified enzyme, MTase-Glo SAH luminescence; measured here: GNMT inhibition; at 40 µM; stronger effect = lower value
# Outline: (§1)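 Each enzyme was reacted with SAM and its substrate, with compounds tested once at 40 uM; SAH formed was read by MTase-Glo luminescence.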
# [2] = target: Guanidinoacetate N-methyltransferase (Homo sapiens) (UniProt Q14353); details: purified enzyme, MTase-Glo SAH luminescence; measured here: GAMT inhibition; at 40 µM; stronger effect = lower value
# Outline: as §1
# [3] = target: Histamine N-methyltransferase (Homo sapiens) (UniProt P50135); details: purified enzyme, MTase-Glo SAH luminescence; measured here: HNMT inhibition; at 40 µM; stronger effect = lower value
# Outline: as §1
# [4] = target: Nicotinamide N-methyltransferase (Homo sapiens) (UniProt P40261); details: purified enzyme, MTase-Glo SAH luminescence; measured here: NNMT inhibition; at 40 µM; stronger effect = lower value
# Outline: as §1
# [5] = target: Phenylethanolamine N-methyltransferase (Homo sapiens) (UniProt P11086); details: purified enzyme, MTase-Glo SAH luminescence; measured here: PNMT inhibition; at 40 µM; stronger effect = lower value
# Outline: as §1
# % is set by controls: 0 for no effect and ±100 for the full control effect.
SMILES,"activity change, negative = inhibition [1] [%]","activity change, negative = inhibition [2] [%]","activity change, negative = inhibition [3] [%]","activity change, negative = inhibition [4] [%]","activity change, negative = inhibition [5] [%]"
COCCO[C@H]1C(=O)N(C2CCN(C(=O)c3cnccn3)CC2)[C@H]1c1ccncc1,-2.8,-3.09,-0.644,-3.61,14.1
Cc1cc2c(cc3n2CC(C)(C(=O)NC2CCCCCC2)N(CC(C)c2ccccc2)C3=O)o1 (stereo not given),-0.178,1.34,2.81,3.92,-1.45
Cc1cc(C)c(S(=O)(=O)c2nnn3c2nc(NCCCOC(C)C)c2ccccc23)c(C)c1,-4.43,4.83,3.31,-0.671,-4.5
CC1CCC(NC(=O)c2cc3n(n2)CC(C)(C(=O)NC2CCCCCC2)N(C)C3=O)CC1 (stereo not given),6.46,0,3.64,6.05,4.53
Cc1c(Cl)cccc1NC(=O)Cn1c(=O)oc2cc(S(=O)(=O)N3CCCC3)ccc21,-6.18,1.59,-6.97,-14.2,-12.7
CCOCC(=O)N[C@@H]1CN(Cc2ccccc2)C[C@H]1CN(C)C,-0.005,0.813,1.16,-4.85,11.1
Cc1ccc(NC(=O)CSc2nnc3[nH]c(=O)c(C(C)(C)C)nn23)c(C)c1,7.07,0,9.4,0.365,1.47
CCC(CC)n1c(=O)n(CCCc2cccnc2)c2cc(C(=O)O)cnc21,-2.27,-1.76,0.597,-4.78,0.433
Cc1cnn(CC(=O)N2CC(F)(F)C[C@H]2c2nc(C3CC3)no2)c1,-3.51,-5.88,-1.95,-9.44,-6.46
COc1cccc(CNC(=O)c2cc3n(n2)CC(C)(C(=O)NCc2ccc(C)cc2)N(C)C3=O)c1OC (stereo not given),1.67,2.54,2.28,-1.41,-0.743
CCOc1ccc(CN2C(=O)c3cc4ccc(OC)cc4n3CC2(C)C(=O)NC2CCCC2)cc1 (stereo not given),4.81,4.09,9.72,7.34,3.19
CCCC1c2cccn2CCN1C(=O)Nc1ccc(F)cc1 (stereo not given),-0.903,0.756,-14.3,0.44,-0.577
CC(C)(O)/C=C/CC(C)(O)C1C(O)CC2(C)C3CCC4C(C)(C)C(=O)CCC4(C)C3CCC12C (stereo not given),-0.604,4.47,2.87,-10.6,3.83
COc1ccccc1N1CCN(C(=O)CCCc2nnc3n4nc(-c5ccccc5)nc4c4ccccc4n23)CC1,0.593,0.55,0.376,3.97,-2.41
Cc1ccc(CNC(=O)C2(C)Cn3nc(C(=O)NCc4ccccc4)cc3C(=O)N2C)cc1 (stereo not given),6.04,0.048,0.786,12.9,5.41
CCN1CCN(c2nc3c(s2)CN(Cc2ccccn2)CC3)CC1,-4.2,-2.01,-12.3,-6.66,-2.46
CCc1cccc(C)c1NC(=O)c1ncn2c1C(=O)N(C1CC1)C(C)(C(=O)NCc1ccc(F)cc1)C2 (stereo not given),4.62,0,12.8,7.91,8.82
